The supplement of paper PMC11417369
The list shows a part of the results.

system: PfHDP1 homeodomain (GST-tagged); assay: gcPBM binding intensity (ln(normalized median fluorescence intensity)); higher = stronger DNA binding
Summary of the method: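 Probes on an Agilent 4 × 180k array were primer-extended, double-stranded and 36 bp long, taken from intergenic genomic regions, with negative controls added. GST-tagged P. falciparum DNA-binding domains from E. coli, about 25 μg on average, were applied to the array for 1 h in 1× PBS containing 1% milk, 0.2 mg/ml BSA, 0.5% salmon testes DNA and 0.03% Triton X-100. Binding intensity, obtained after Alexa488 anti-GST antibody detection and a 488 nm scan, is the highest Masliner-normalised natural-log median intensity across replicate spots of either probe orientation.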

| Sequence | gcPBM binding intensity (ln) |
| --- | --- |
| TATAAAATTCTGACTTGTACATGTGAAAAATAATTA [XGTACX_site1396] | 6.48 |
| AAAGATGGAAAAAAAAATTTGTGTGTTGAAAGATAT [GTGCAC_negctrl_site19] | 6.82 |
| GCGTTGTTTTTAAAAAGTACATTTTTATATAAGTTA [XGTACX_site8780] | 6.37 |
| AAAATACAATTTCTAGCACACAAAATATTATTATAA [CACACA_site9056] | 6.29 |
| TATATATATATATAATGTACACATTTTTATAACTAT [XGTACX_site5714] | 9.14 |
| ATAATAAAAATATACTGTACATTTGTAAATTCTTTT [XGTACX_site4655] | 6.11 |
| TAAAACATATAAAGGTGTACGCCTTTTTGTATCAAT [XGTACX_site6064] | 6.2 |
| TTATAGAGCTTATTCACACATACATATGTATTTATA [CACACA_site5775] | 6.87 |
| GTCTACTACACTAAATGTACAAGAAAAAAGAAAAAA [XGTACX_site4660] | 6.31 |
| TATATTTGTTGACACACACACAAAAAAAAAAAAAAA [CACACA_site7211] | 6.32 |
| AAGAGTAAAATATGGTTGCACTAAAAATATATATTT [GTGCAC_site9484] | 8.8 |
| TATTTATATATTTATGCATGTTATAGGCAAAAATGT [TGCATGCA_site397] | 6.27 |
| TATATTGATGATGATAGTACGTATGAATACAAAAAA [XGTACX_site4] | 6.47 |
| GTAGATATTTATTGAGTGCATGTTATAAAGGGAAAA [GTGCAC_site9481] | 7.83 |
| TTTTTTTTATGGAAACGTACATACATACATTAAAGA [XGTACX_site7401] | 6.36 |
| TTTTTATTTTTTTACAGTACATAAAATAAATAAATA [XGTACX_site6596] | 6.27 |
| TTGGTGATATTTTTCTCACACATTTACCAGAGATGT [CACACA_site4684] | 6.39 |
| TTTGTTTTTTTGAGAGTGCAATATATATAAAAAGGG [GTGCAC_site9691] | 9.35 |
| CATAATAAGTATAACGTTAGTTACAAACAGCTTGTT [CACACA_negctrl_site937] | 6.54 |
| TTTTTAAATAAATGTTTTTATTATATACATATCAAT [TGCATGCA_negctrl_site423] | 6.22 |
| AAAATAATGTATATAGTGCAAATGAAAACGAAAAAA [GTGCAC_site9455] | 9.04 |
| TAAAAATATAAAAAGTGTACAATATATAAATTAATA [XGTACX_site1606] | 6.71 |

| Sequence | gcPBM binding intensity (ln) |
| --- | --- |
| ATATTAAAAAAATATGCATGCAAATATTATTTTGTA [TGCATGCA_site191] | 6.42 |
| TATTTAATTAATATAATATTAAACGGAAAAGATAAA [TGCATGCA_negctrl_site148] | 6.93 |
| TTTTTCTTTTTTTTTTTAATAATATATAACAAATTT [CACACA_negctrl_site1724] | 6.24 |
| AATCAAATTTTCAAGTCGCACCAAACAAAAAAATGA [CACACA_negctrl_site1397] | 6.84 |
| ATGTTATATTTTTTTATACACACTGGGATATATAAA [CACACA_site6244] | 6.93 |
| TTCATTGTGTTAACGGTGCATATATTTTTTCACCGT [GTGCAC_site9464] | 9.4 |
| ATAAACAAAAAAAAAAAATATATCAATATATATATA [CACACA_negctrl_site299] | 8.7 |
| AAAATATATAATTTTTAACACACAAAAAAAAAAAAA [CACACA_site9192] | 6.31 |
| AGTCATAAATTTATTTGTACATATAATATATATATA [XGTACX_site8489] | 8.35 |
| GTCCTTACTAATTAATTTTAGGCCATATAGTTTGTC [XGTACX_negctrl_site199] | 6.63 |
| ATATTACAAATATAATGTACAAAATATAAATATGCA [XGTACX_site8106] | 6.34 |
| GTTATACACATATATACACACATATGTAAATATATA [CACACA_site9080] | 7.66 |
| CTAATATATGTATGCACACACAATATATACATATTT [CACACA_site3360] | 9.57 |
| CATTAATTTAATAAATGTACATAAAATATATATTAT [XGTACX_site8085] | 7.49 |
| TAAAATTTACAACACTGTACTTGAATTTATCTTTAA [XGTACX_site241] | 6.02 |
| GCAGTATGCGATCAGTGTACGAGTTATTTTATAAAA [XGTACX_site4764] | 6.36 |
| TTATAATCTATACATATATATGTATGTATGTCTCAA [CACACA_negctrl_site1702] | 6.49 |
| AAATGCGTATATAACGCATGTATAAGAACATTTTTT [TGCATGCA_site225] | 6.28 |
| ACATCATTTTTATGTACACACACATATACGTTGAAT [CACACA_site5095] | 7.08 |
| GAAGTATTATTAAAGCTGCACTTTTCTAAAATAAAC [GTGCAC_site9429] | 6.69 |
| TGTTATATATAAATTTGTACACATAAATATTTTTAC [XGTACX_site5873] | 6.76 |
| AATAAAAAAAAATGCACACATATATATATATATATA [CACACA_site2421] | 9.87 |

| Sequence | gcPBM binding intensity (ln) |
| --- | --- |
| TTTTTATTTATATGTATACACACTTTAATTAAAAGT [CACACA_site2525] | 7.09 |
| CAGAATATATTCTATACATGCAATAGGAAATGTAGC [TGCATGCA_site110] | 6.98 |
| AAAAAAAAAAAAAAAAGTACAAAAATATATATGCAT [XGTACX_site8392] | 6.48 |
| TATGCACAGAAACACACACACACAACCAAAAAATAA [CACACA_site5425] | 8.96 |
| CTATAATGTTTCTTTCAACACACAAAAAATGAACAC [CACACA_site8438] | 7.14 |
| CATACGTTCTAATATATACACACCTGGTATTAATTA [CACACA_site2221] | 6.7 |
| AATATATAATTTTTAACACACAAAAAAAAAAAAAAT [CACACA_site3581] | 6.34 |
| AAAAAAAAAAAAAAAACACACACATATAATATATTT [CACACA_site8369] | 6.77 |
| TCATTCTAAATATAAACACACATAAATATATACATT [CACACA_site3354] | 6.69 |
| ATTGCGTGATAATAATGTACAAAAAGTAATTTATAT [XGTACX_site8339] | 6.24 |
| GGTACGTATTTCAATGCATGTCCATGTACATATAAA [TGCATGCA_site208] | 7.08 |
| ACATACATACATACATACATACATACATACATACAT [XGTACX_negctrl_site315] | 7.62 |
| TATAATATATCTGTAACACACAAAAGTTATATACTT [CACACA_site5578] | 6.44 |
| TTTTTTTCTCTCTCTACACACAAGGTTTAATTTAAA [CACACA_site1690] | 6.81 |
| AACTCACGAGGACACACACACATATATATATATATA [CACACA_site4711] | 9.36 |
| TCATAGGGGTAGAAGGTGCAATAAAAAAGAAGAAAA | 9.84 |
| ATAAATATGTTCTGCACACAAATAAGTGTTTGAAGT [CACACA_site3892] | 8.63 |
| GAATTTCAACAAAGTAGTACATTTTATAGTAATTGG [XGTACX_site2319] | 6.11 |
| TAATGGAATAAAAATTGTACATATTTTTTTTTTTTT [XGTACX_site7669] | 6.34 |
| TGTAGTCTGGAGAAACGTACATAGTATCTGGTAGCT [XGTACX_site2538] | 6.33 |
| AAATTTTCTTAAGGTTGTACTTTTTGAAAATAATCT [XGTACX_site4894] | 6.01 |
| TTTTTATATATATGTATAAATATTTTTTCTATTTAT [XGTACX_negctrl_site606] | 6.46 |

| Sequence | gcPBM binding intensity (ln) |
| --- | --- |
| ATATTTATAATATAGAGTACTTACTAAGTTATGGGT [XGTACX_site5405] | 6.69 |
| AATGTGTAGGTAAGATAATTTTTGTTTTTTTATTTG [CACACA_negctrl_site424] | 6.48 |
| TTAAACTTGAAACACACACACACACCCATATAAAAA [CACACA_site758] | 7.17 |
| TAATAATAGAGACACACACACATTTTTAATAATACA [CACACA_site6691] | 6.77 |
| CTTTGTAGTTGGTCCACACACATATATGGAAGAATA [CACACA_site1280] | 6.79 |
| ATATATATATATATATATATATATATATTTATATAT [GTGCAC_negctrl_site180] | 9.28 |
| TAAAAGGAACAAAATTGTACTTAAAAGACAAAGTTA [XGTACX_site7661] | 5.62 |
| ACACAAAAATAAAAATGTACAAATTAAAAAAAATGA [XGTACX_site2083] | 6.73 |
| CACACCATATAATATATATATATGTATATATTTATA [CACACA_negctrl_site397] | 6.58 |
| TTTTTTTTTTTTTTGTCACACACCTTCATAAGAAAA [CACACA_site1166] | 6.59 |
| ATATATATTAATAGTTGTACTATTATAATATTACAA [XGTACX_site1213] | 6.22 |
| ATCCTGAACAGAATATGTATAAACAGAAGGAAACAA [CACACA_negctrl_site1805] | 7.03 |
| AAAAAAAAAAAAAAAAGTACAAAAAAAAAAAAAAAA [XGTACX_site4549] | 6.51 |
| TACACGCATAGACACACACACACACGCATATAAATA [CACACA_site6446] | 7.22 |
| TATACCTATAGACACACACACATAAATAGATATATA [CACACA_site6748] | 6.85 |
| TTTTTTTTTTTAAATAGTACACATATATATATATAT [XGTACX_site6983] | 9.06 |
| AGTTTACACCTTGTGAGTACATACATACATATATAT [XGTACX_site8793] | 6.65 |
| TTTTATTTTTCTAGTAGTACTTCTTTTTATAATATA [XGTACX_site1181] | 6.85 |
| AGAAAAATTCTAAGAACATGCAAAAAAATAAAAAAA [TGCATGCA_site293] | 6.6 |
| TTAACATTTTAAAAATGTACATTTATATACATAAAT [XGTACX_site922] | 6.46 |
| AAAAAATAAATAAATATACACACCATATATATATTT [CACACA_site2854] | 6.46 |
| TCTAATGTAATGCATACACACAACTATCCATCAAAA [CACACA_site534] | 6.6 |
